Test results taken from patent publication US20240368664A1, “LIVE YEAST BIOSENSORS AND METHODS OF USE THEREOF” (priority 2021, published 2024).
Residues, ends and D or L forms follow the SMILES beside them. No end group written: not given here.

Assays:
CaSte2 = settings: biosensor with no protease; 10-h incubation
[1] = test system: AfuSte2 (first member), ScSte2 (second member); type: cell-based, A. fumigatus

| Compound | EC50 (CaSte2) [nM] | EC50 shift compared to simple split sensor [1] |
| --- | --- | --- |
| GARLTNFGYFEPA [CaPep2A13A] | ~50 | – |
| GARLTNFGYFEPG [CaPep2A] | ~50 | – |
| CC(C)C[C@H](NC(=O)[C@H](Cc1c[nH]cn1)NC(=O)[C@H](CS)NC(=O)[C@@H](N)Cc1c[nH]c2ccccc12)C(=O)N1CCC[C@H]1C(=O)NCC(=O)N[C@@H](CCC(N)=O)C(=O)NCC(=O)N[C@@H](CS)C(=O)O [AfuPep] (H-WCHLPGQGC-OH; N-terminus and C-terminus assumed) | – | does not lead to stronger EC50 shift |
